Laboratory results as given in the supplement of paper PMC12067093, “Discovery and optimisation of a covalent ligand for TRIM25 and its application to targeted protein ubiquitination” (Chemical Science, 2025).
The full data set covers some 21,000 targets. This sample favours those with the largest changes.

Compound: Cc1cc(ccc1-c1ccccc1)C(=O)N1CCCN(CC1)C(=O)CCl [compound 10]
Assay: probe-labelled cysteine peptide fold change vs DMSO (competition) (log2 fold change); higher = less target engagement (more negative = stronger competition)
Conditions: THP-1, incubation time: 4 h
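Also: competitive profiling in live THP-1 cells: cysteine peptides tagged with an iodoacetamide desthiobiotin (IA-DTB) probe, intensity after compound treatment relative to DMSO-treated cells.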

Sequence of UniProt Q8TEA1 (Q8TEA1 whole entry): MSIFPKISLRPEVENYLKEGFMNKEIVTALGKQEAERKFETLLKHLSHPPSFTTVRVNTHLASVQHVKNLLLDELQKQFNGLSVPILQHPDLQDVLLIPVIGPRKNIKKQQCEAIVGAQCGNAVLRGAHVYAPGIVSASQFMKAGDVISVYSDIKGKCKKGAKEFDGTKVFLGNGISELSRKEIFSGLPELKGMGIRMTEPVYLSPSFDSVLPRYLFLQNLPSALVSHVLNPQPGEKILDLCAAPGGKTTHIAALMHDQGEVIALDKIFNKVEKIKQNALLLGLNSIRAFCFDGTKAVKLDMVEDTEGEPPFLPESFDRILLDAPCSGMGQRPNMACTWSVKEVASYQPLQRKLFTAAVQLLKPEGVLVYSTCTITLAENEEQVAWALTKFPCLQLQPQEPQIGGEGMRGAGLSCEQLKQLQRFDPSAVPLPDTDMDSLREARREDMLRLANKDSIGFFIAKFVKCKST
Sequence of UniProt Q9BRA0 (Q9BRA0 whole entry): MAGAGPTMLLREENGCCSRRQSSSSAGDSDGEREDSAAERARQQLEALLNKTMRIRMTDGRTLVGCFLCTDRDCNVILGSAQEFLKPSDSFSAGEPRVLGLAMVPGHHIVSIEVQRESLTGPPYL
Sequence of UniProt Q15233 (Q15233 whole entry, looked up): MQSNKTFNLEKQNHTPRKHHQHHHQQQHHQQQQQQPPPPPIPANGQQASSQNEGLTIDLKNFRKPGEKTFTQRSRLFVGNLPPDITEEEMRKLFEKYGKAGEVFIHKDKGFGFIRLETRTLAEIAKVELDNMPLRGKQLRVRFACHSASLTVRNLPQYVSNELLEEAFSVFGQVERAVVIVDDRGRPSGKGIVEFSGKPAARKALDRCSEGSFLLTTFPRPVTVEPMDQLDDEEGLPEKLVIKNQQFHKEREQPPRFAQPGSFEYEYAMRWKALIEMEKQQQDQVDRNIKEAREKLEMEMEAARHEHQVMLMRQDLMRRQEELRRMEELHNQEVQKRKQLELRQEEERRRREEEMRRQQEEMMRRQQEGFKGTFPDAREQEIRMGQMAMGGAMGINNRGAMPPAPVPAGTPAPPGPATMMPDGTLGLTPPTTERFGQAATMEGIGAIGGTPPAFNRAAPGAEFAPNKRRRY
Sequence of UniProt O75914 (O75914 whole entry, looked up): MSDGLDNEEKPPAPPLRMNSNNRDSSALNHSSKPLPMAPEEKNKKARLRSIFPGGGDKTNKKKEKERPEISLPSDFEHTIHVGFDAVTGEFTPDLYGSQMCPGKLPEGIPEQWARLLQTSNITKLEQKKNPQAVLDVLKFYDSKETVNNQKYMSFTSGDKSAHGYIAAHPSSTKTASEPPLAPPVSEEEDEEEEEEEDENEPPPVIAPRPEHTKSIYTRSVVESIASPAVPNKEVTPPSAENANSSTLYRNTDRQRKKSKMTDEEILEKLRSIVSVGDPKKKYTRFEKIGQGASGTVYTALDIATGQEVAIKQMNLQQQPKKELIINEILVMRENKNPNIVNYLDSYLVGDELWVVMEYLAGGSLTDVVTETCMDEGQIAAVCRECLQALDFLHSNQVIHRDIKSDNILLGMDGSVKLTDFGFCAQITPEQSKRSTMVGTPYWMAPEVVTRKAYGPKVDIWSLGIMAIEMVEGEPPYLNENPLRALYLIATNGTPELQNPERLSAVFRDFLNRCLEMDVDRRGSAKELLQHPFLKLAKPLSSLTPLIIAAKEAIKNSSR
Sequence of UniProt Q99497 (Q99497 whole entry, looked up): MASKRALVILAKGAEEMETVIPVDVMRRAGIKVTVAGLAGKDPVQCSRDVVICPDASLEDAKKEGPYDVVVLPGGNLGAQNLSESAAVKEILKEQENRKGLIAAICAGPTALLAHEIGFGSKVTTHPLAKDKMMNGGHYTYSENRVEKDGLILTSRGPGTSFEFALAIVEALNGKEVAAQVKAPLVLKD
Sequence of UniProt O75665 (O75665 whole entry, looked up): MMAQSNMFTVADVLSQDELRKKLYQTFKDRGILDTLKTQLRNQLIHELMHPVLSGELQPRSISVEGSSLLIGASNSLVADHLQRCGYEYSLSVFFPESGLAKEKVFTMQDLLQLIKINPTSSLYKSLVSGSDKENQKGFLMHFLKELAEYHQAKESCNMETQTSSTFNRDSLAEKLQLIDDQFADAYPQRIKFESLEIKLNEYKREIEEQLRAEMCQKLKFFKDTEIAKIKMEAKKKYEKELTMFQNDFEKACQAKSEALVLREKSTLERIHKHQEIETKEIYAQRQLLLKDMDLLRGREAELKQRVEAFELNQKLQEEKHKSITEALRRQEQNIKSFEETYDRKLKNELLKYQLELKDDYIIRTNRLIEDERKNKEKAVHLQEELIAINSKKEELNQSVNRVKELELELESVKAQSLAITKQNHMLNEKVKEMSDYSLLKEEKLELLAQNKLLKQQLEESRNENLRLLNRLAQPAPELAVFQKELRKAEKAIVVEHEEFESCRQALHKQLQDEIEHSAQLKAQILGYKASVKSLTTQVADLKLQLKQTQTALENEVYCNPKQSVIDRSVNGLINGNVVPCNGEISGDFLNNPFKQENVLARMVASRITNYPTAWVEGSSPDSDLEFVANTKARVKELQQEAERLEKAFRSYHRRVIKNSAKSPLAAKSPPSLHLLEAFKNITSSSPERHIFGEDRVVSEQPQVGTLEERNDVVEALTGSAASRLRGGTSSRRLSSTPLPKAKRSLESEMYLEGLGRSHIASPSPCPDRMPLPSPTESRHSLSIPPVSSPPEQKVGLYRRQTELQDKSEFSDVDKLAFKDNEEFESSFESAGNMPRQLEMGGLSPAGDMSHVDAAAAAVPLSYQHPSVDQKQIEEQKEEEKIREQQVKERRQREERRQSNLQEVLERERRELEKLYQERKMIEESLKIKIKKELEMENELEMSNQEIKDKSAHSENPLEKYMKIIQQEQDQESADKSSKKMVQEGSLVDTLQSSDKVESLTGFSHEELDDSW
Sequence of UniProt Q460N5 (Q460N5 whole entry, looked up): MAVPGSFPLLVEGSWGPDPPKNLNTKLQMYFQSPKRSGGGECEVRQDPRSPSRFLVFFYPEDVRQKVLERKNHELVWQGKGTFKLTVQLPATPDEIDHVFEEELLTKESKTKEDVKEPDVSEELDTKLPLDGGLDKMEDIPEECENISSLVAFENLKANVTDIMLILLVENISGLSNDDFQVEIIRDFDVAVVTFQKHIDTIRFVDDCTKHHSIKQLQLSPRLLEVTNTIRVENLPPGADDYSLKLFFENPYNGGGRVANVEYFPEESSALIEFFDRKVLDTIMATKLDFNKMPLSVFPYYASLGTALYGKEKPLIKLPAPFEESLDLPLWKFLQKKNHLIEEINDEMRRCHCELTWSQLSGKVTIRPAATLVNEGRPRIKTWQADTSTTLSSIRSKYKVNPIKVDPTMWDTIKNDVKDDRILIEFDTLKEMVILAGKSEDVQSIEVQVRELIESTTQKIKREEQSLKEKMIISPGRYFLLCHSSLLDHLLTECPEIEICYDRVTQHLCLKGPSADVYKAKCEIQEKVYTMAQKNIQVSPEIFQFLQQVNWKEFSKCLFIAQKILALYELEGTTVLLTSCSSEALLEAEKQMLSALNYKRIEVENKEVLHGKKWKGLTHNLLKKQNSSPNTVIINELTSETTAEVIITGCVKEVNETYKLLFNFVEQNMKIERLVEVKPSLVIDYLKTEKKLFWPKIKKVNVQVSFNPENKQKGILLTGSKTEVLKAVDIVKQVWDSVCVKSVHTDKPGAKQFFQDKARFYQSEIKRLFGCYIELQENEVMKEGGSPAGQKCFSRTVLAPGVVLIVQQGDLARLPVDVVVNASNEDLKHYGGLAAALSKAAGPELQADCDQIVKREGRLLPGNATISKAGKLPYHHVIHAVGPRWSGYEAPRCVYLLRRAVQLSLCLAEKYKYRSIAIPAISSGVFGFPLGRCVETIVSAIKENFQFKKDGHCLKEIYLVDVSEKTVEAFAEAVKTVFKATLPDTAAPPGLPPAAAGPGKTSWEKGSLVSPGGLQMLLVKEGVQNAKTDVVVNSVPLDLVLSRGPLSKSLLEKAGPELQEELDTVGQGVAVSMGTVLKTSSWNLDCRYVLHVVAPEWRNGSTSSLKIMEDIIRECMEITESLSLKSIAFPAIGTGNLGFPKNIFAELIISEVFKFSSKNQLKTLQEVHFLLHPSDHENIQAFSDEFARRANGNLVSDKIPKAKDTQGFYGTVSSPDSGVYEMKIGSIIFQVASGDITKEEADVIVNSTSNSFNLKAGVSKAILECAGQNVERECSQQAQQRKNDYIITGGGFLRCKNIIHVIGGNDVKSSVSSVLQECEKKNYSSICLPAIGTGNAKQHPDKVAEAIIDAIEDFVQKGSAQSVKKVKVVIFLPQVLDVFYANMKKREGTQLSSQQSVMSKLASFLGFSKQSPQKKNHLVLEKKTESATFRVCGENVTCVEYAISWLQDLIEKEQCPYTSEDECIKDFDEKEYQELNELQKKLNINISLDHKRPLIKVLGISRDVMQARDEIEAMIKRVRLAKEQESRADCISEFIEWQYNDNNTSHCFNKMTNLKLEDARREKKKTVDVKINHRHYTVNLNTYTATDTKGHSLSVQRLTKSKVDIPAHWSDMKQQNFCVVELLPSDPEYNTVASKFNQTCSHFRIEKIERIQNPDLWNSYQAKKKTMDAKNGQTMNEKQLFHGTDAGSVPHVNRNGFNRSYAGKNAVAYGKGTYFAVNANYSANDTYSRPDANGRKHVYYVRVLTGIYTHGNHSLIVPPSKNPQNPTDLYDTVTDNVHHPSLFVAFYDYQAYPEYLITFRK
Sequence of UniProt Q6N063 (Q6N063 whole entry): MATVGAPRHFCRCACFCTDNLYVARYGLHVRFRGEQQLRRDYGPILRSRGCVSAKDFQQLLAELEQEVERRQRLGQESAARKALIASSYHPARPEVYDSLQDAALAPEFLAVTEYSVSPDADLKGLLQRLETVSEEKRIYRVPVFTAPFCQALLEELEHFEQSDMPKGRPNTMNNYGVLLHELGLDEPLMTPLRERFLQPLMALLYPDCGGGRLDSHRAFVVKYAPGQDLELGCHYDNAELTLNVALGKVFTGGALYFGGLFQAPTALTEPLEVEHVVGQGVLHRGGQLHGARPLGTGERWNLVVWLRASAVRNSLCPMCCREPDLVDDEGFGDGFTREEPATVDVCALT

Target | probe-labelled cysteine peptide fold change (10 µM) | probe-labelled cysteine peptide fold change (50 µM)
NPEPPS_P55786_887_TIQQCCENILLNAAWLK (UniProt P55786) | -0.0839 | -0.336
NCDN_Q9UBB6_98_EAPDGCPDHVLR (UniProt Q9UBB6) | -0.102 | -0.415
NDUFA8_P51970_46_EFMLCR (UniProt P51970) | -0.135 | 0.173
NKTR_P30414_173_VIDCGVLATK (UniProt P30414) | -0.147 | -0.203
PAK3_O75914_424_LTDFGFCAQITPEQSK (UniProt O75914) | 0.0891 | -0.18
PARK7_Q99497_106_GLIAAICAGPTALLAHEIGFGSK (UniProt Q99497) | -0.496 | -2.74
NDUFA11_Q86Y39_18_QYWDIPDGTDCHR (UniProt Q86Y39) | 0.125 | 0.21
NOTCH1_P46531_1295_VNDFHCECR (UniProt P46531) | -0.0235 | -0.102
PARP14_Q460N5_1274_ECSQQAQQR (UniProt Q460N5) | -0.264 | -0.217
P4HB_P07237_397+400_NVFVEFYAPWCGHCK (UniProt P07237) | -0.47 | -1.51
NONO_Q15233_208_CSEGSFLLTTFPR (UniProt Q15233) | -0.102 | 0.262
NMNAT3_Q96T66_12_IPVVLLACGSFNPITNMHLR (UniProt Q96T66) | 0.482 | 1
NR3C1_P04150_457_AVEGQHNYLCAGR (UniProt P04150) | -0.218 | -0.294
OFD1_O75665_157_ESCNMETQTSSTFNR (UniProt O75665) | -0.197 | -0.205
OPLAH_O14841_466_VANEAMCRPIR (UniProt O14841) | 0.178 | 0.00561
NUP88_Q99567_447_CFVEHILCTK (UniProt Q99567) | -0.156 | -0.168
NCDN_Q9UBB6_725_MAALEQCLSEP (UniProt Q9UBB6) | -0.0326 | 0.207
NOTCH1_P46531_1345_CPAGFEGATCENDAR (UniProt P46531) | -0.339 | -0.0307
NSUN2_Q08J23_758_AGEPNSPDAEEANSPDVTAGCDPAGVHPPR (UniProt Q08J23) | -0.194 | 0.151
OXR1_Q8N573_410_SDTEHSTNEVGTLCHK (UniProt Q8N573) | 0.00922 | -0.0971
NISCH_Q9Y2I1_935_GTHNCR (UniProt Q9Y2I1) | -0.272 | -2.06

Target | probe-labelled cysteine peptide fold change (10 µM) | probe-labelled cysteine peptide fold change (50 µM)
NSUN6_Q8TEA1_242_ILDLCAAPGGK (UniProt Q8TEA1) | -0.181 | 0.0653
NOL8_Q76FK4_630_HEDPSIISMEDGSPYVNGSLGEVTPCQHAK (UniProt Q76FK4) | -0.0436 | -0.297
NUP155_O75694_104_RVPLPPELVEQFGHMQCNCMMGVFPPISR (UniProt O75694) | 0.251 | -0.248
OGFOD2_Q6N063_209_FLQPLMALLYPDCGGGR (UniProt Q6N063) | 0.12 | 1.08
NUP37_Q8NFH4_172_IWNLEGVQTAHFVLHSPGMSVCWHPEETFK (UniProt Q8NFH4) | 0.129 | 0.142
NAE1_Q13564_34_LWGDHGQEALESAHVCLINATATGTEILK (UniProt Q13564) | 0.173 | 0.162
NCAPH_Q15003_418_TMCPLLSMK (UniProt Q15003) | -0.465 | -1.14
NMD3_Q96D46_71_YFQPPGTWIQCALESR (UniProt Q96D46) | 0.274 | 0.174
NAA38_Q9BRA0_17_EENGCCSR (UniProt Q9BRA0) | -0.19 | -1.1
PARP10_Q53GL7_981+983+1004_YDSAVDCICQPSIFVIFHDTQALPTHLITCEHVPR (UniProt Q53GL7) | -0.073 | -0.214
NF1_P21359_1016_LCQLVEVMMAR (UniProt P21359) | 0.0392 | 0.0791
NUP205_Q92621_237_QSLAESLFAWACQSPLGK (UniProt Q92621) | 0.243 | 0.658
NDC1_Q9BTX1_9_ATAVSRPCAGR (UniProt Q9BTX1) | -0.485 | -1.69
NSF_P46459_21_CPTDELSLTNCAVVNEK (UniProt P46459) | -0.173 | 0.166
OSBPL5_Q9H0X9_233_CWLDALELALR (UniProt Q9H0X9) | -0.0895 | -1.08
OTULINL_Q9NUU6_226_GSMCNTLFSDAILEYK (UniProt Q9NUU6) | -0.0829 | 0.208
NDUFAF6_Q330K2_236_VFLPMDICMLHGVSQEDFLR (UniProt Q330K2) | -0.034 | 0.567
OTULINL_Q9NUU6_177_LLFSQGCNWIQQYSFGPEK (UniProt Q9NUU6) | -0.101 | -0.0508
NPTX1_Q15818_89_CESQSTLDPGAGEAR (UniProt Q15818) | -0.365 | 0.0326
NUTF2_P61970_80_IQHSITAQDHQPTPDSCIISMVVGQLKADEDPIMGFHQMFLLK (UniProt P61970) | -0.263 | -1.1
